Results as given in the antibiotic and cytotoxicity screens of Wong et al. (2023).
The list shows a part of the results.

The compounds below were run on HepG2 (assay: cytotoxicity call (relative viability < 0.9)). Conditions: 10 µM.

Question: With `COCC#Cc1ccc2c(c1)O[C@@H](CN(C)C(=O)c1ccccc1F)[C@@H](C)CN([C@H](C)CO)S2(=O)=O` as the compound, how does the cytotoxicity call read?
Answer: inactive

Question: How did the cytotoxicity call turn out when `C[C@@H]1CN([C@@H](C)CO)C(=O)CCCn2cc(nn2)CO[C@H]1CN(C)C(=O)Nc1ccc(C(C)(C)C)cc1` was run?
Answer: inactive

Question: How did the cytotoxicity call turn out when `Cc1ccc(S(=O)(=O)Nc2ccc3c(c2)C(=O)N([C@H](C)CO)C[C@@H](C)[C@H](CN(C)C(=O)Nc2ccc4c(c2)OCO4)OCCCC[C@@H](C)O3)cc1` was run?
Answer: inactive

Question: How did the cytotoxicity call turn out when `COc1ccc(CN(C)C[C@@H]2Oc3ccc(NC(=O)CCN4CCOCC4)cc3CC(=O)N([C@@H](C)CO)C[C@H]2C)cc1` was run?
Answer: inactive

Question: Which cytotoxicity call does the source give for `Cc1ccc(S(=O)(=O)Nc2ccc3c(c2)C(=O)N([C@H](C)CO)C[C@H](C)[C@H](CN(C)Cc2ccc(Oc4ccccc4)cc2)O3)cc1` here?
Answer: inactive

Question: `COc1ccc(CN(C)C[C@H]2OCCCC[C@@H](C)Oc3ccc(NC(=O)Nc4ccccc4)cc3C(=O)N([C@@H](C)CO)C[C@@H]2C)cc1` was tested. Which cytotoxicity call did it give?
Answer: inactive

Question: With `C[C@@H]1CCCCO[C@H](CN(C)CC2CCCCC2)[C@@H](C)CN([C@H](C)CO)C(=O)c2cc(NC(=O)c3ccncc3)ccc2O1` as the compound, how does the cytotoxicity call read?
Answer: inactive

Question: For `COc1ccc(C#N)nc1`, which cytotoxicity call is on record?
Answer: inactive

Question: Which cytotoxicity call does the source give for `C[C@@H]1CN([C@H](C)CO)C(=O)c2cc(NS(=O)(=O)c3cn(C)cn3)ccc2O[C@@H]1CN(C)C(=O)Nc1ccccc1` here?
Answer: inactive

Question: For `CCCn1c(=O)c(C#N)cn(C2CC2)c1=O`, which cytotoxicity call is on record?
Answer: inactive

Question: For `C[C@H]1CN([C@@H](C)CO)C(=O)Cc2cc(NC(=O)CCC(F)(F)F)ccc2O[C@H]1CN(C)Cc1ccc(C(=O)Nc2ccccc2N)cc1`, which cytotoxicity call is on record?
Answer: active

Question: For `C[C@@H]1CCCCO[C@H](CN(C)S(=O)(=O)c2ccc(F)cc2)[C@@H](C)CN([C@@H](C)CO)C(=O)c2cc(NS(=O)(=O)c3ccc(Cl)cc3)ccc2O1`, which cytotoxicity call is on record?
Answer: inactive

Question: Which cytotoxicity call does the source give for `C[C@H](CO)N1C[C@H](C)[C@@H](CN(C)S(C)(=O)=O)Oc2ccc(N(C)C)cc2C1=O` here?
Answer: inactive

Question: `C[C@@H]1CN([C@H](C)CO)C(=O)c2cccc(NC(=O)c3ccc(-c4nccs4)cc3)c2O[C@H]1CN(C)C(=O)Nc1cccc2ccccc12` was tested. Which cytotoxicity call did it give?
Answer: inactive

Question: With `Cc1noc(C)c1NC(=O)Nc1ccc2c(c1)C(=O)N([C@@H](C)CO)C[C@H](C)[C@@H](CN(C)Cc1ccc3c(c1)OCO3)OCCCC[C@@H](C)O2` as the compound, how does the cytotoxicity call read?
Answer: inactive

Question: Which cytotoxicity call does the source give for `CN(C)Cc1ccc(O)c(CN(C)C)n1` here?
Answer: inactive

Question: With `COc1ccc(CN(C)C[C@@H]2OCCCC[C@H](C)Oc3ccc(NC(=O)Nc4ccc(C(F)(F)F)cc4)cc3C(=O)N([C@@H](C)CO)C[C@@H]2C)cc1` as the compound, how does the cytotoxicity call read?
Answer: active

Question: For `C[C@@H]1CN([C@H](C)CO)C(=O)Cc2cc(NC(=O)Nc3ccc(F)cc3)ccc2O[C@H]1CN(C)Cc1ccc(Oc2ccccc2)cc1`, which cytotoxicity call is on record?
Answer: active

Question: Which cytotoxicity call does the source give for `CC(C)(Sc1cc(C(C)(C)C)c(O)c(C(C)(C)C)c1)Sc1cc(C(C)(C)C)c(OC(=O)CCC(=O)O)c(C(C)(C)C)c1` here?
Answer: inactive

Question: With `CC(C)NC(=O)Nc1ccc2c(c1)C(=O)N([C@H](C)CO)C[C@H](C)[C@@H](CN(C)S(=O)(=O)c1ccccc1)O2` as the compound, how does the cytotoxicity call read?
Answer: inactive

Question: With `COCC(=O)Nc1ccc2c(c1)OC[C@H](C)N(C(=O)c1ccccc1F)C[C@@H](C)[C@@H](OC)CN(C)C2=O` as the compound, how does the cytotoxicity call read?
Answer: inactive

Question: With `COCCOC(=O)N1C(=O)[C@@]2(c3cc(C#Cc4ccc(OC)cc4)ccc31)[C@H](c1ccc(OCCO)cc1)N1[C@H](c3ccccc3)[C@H](c3ccccc3)OC(=O)[C@H]1[C@@H]2C(=O)N1CCN(c2ncccn2)CC1` as the compound, how does the cytotoxicity call read?
Answer: inactive

Question: For `OCC(O)CN1CCN(c2ccccc2)CC1` (centres undefined), which cytotoxicity call is on record?
Answer: inactive

Question: `COc1ccc2c3c([nH]c2c1)[C@H](CO)N(C[C@]13CCN(CC1)C(=O)c1cnccn1)C(=O)c1cnccn1` was tested. Which cytotoxicity call did it give?
Answer: inactive

Question: `C[C@H]1CN([C@@H](C)CO)C(=O)c2cccc(NC(=O)C3CCOCC3)c2O[C@@H]1CN(C)S(=O)(=O)c1cn(C)cn1` was tested. Which cytotoxicity call did it give?
Answer: inactive

Question: `C[C@@H]1CN([C@H](C)CO)C(=O)c2cccc(NS(=O)(=O)c3ccc(F)cc3)c2O[C@H]1CN(C)Cc1ccc(-c2ccccc2)cc1` was tested. Which cytotoxicity call did it give?
Answer: active

Question: How did the cytotoxicity call turn out when `CCCNC(=O)[C@H]1[C@H](CO)[C@H]2Cn3c(ccc(-c4ccccc4OC)c3=O)[C@H]2N1S(C)(=O)=O` was run?
Answer: inactive

Question: With `C[C@@H]1CCCCO[C@@H](CN(C)C(=O)Nc2cccc3ccccc23)[C@H](C)CN([C@@H](C)CO)C(=O)c2cc(NC(=O)c3ccccc3)ccc2O1` as the compound, how does the cytotoxicity call read?
Answer: active

Question: With `COc1ccccc1NC(=O)N(C)C[C@@H]1Oc2cc(Br)ccc2S(=O)(=O)N([C@H](C)CO)C[C@@H]1C` as the compound, how does the cytotoxicity call read?
Answer: inactive
